Measured values: article PMC4738361
Results are given in words; binding and its absence hold for the method and conditions named. Binding seen in cells or lysates may run through a third protein. Some entries that bind do so weakly or less than the wild type. For some of these results: Sequences can lack the tags named with a protein. Blank lines part the entries; values can stand above or below the molecule they belong to.

Sequences of proteins named here, by UniProt entry; tags and fusion partners are left off.
UniProt Q9UM11: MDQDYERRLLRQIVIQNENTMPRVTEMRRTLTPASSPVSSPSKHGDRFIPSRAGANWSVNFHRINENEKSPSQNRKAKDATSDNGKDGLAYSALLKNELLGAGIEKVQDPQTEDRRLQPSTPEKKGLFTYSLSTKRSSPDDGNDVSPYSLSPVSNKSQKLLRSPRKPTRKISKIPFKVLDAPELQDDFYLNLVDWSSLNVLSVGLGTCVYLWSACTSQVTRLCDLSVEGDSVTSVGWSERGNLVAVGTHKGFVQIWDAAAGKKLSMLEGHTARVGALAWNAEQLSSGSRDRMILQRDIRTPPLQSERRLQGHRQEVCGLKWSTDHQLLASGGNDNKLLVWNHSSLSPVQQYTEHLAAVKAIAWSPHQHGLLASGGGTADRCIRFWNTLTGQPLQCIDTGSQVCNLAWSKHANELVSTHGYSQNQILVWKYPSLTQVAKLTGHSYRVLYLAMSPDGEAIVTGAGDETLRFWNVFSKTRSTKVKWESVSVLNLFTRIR

Key:
[1] = biological target: T1, HA-tagged mutant CDC6 (dl 93–100) (HEK-293T) (human) (UniProt Q99741); test: co-IP; CDC6 WT and dl93–100 with CDH1 (Supplementary Fig. 1c); cells, bait and resin not shown
T1 sequence: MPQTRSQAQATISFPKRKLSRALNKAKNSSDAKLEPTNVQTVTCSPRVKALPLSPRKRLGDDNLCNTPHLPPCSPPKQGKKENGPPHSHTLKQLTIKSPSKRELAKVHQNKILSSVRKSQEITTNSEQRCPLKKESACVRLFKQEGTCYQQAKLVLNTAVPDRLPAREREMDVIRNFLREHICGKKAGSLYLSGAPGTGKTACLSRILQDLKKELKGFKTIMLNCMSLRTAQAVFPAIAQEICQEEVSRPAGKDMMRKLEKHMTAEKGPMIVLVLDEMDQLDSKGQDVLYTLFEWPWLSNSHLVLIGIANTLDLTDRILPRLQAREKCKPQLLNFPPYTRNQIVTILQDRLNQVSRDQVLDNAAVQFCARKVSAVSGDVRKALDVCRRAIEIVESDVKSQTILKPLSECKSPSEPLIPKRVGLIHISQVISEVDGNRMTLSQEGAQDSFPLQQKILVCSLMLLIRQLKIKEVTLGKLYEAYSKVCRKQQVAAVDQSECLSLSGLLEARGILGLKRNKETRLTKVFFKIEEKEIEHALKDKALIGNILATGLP

[2] = biological target: T2, HA-tagged wild-type CDC6 (HEK-293T) (human) (UniProt Q99741); test: as above
T2 sequence: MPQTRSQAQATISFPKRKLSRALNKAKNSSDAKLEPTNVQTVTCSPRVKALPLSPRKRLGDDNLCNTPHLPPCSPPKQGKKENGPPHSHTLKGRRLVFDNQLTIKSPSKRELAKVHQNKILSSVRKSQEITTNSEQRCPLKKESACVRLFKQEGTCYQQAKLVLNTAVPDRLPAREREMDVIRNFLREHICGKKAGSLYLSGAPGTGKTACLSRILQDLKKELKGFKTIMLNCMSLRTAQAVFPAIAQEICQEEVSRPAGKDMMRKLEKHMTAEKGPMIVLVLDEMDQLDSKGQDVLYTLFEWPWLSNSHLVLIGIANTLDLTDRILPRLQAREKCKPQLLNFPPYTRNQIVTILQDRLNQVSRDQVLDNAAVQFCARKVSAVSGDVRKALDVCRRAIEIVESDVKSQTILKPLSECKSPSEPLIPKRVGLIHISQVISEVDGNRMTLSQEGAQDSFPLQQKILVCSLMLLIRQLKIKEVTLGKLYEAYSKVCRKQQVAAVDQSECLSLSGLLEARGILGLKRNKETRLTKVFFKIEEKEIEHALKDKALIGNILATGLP

[3] = biological target: T3, GST-CDC6 1–362 WT (human) (UniProt Q99741); test: pull-down; GST-CDC6 1–362 (WT or dl93–100) on glutathione-sepharose beads; in vitro translated 35S-labelled Cyclin F (WT or MR/AA) bound for 2 h at 20 °C in 20 mM Tris pH 8, 200 mM NaCl, 0.5% NP40; autoradiography; only the target purified
T3 sequence: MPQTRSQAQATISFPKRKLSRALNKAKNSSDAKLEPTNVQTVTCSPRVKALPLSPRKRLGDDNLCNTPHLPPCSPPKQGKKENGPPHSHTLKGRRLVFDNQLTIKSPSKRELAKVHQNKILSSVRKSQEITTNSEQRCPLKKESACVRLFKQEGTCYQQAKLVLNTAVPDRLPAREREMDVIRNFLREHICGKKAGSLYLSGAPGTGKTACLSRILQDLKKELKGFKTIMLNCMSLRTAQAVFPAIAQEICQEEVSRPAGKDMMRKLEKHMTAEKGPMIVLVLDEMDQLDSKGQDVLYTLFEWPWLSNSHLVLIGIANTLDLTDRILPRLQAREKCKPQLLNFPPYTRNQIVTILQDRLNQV

[4] = biological target: T1, HA-tagged mutant CDC6 (dl 93–100) (HEK-293T) (human); test: co-IP; HEK-293T cells transfected with HA-tagged CDC6 WT or dl 93–100; whole-cell extracts precipitated with anti-HA resin; immunoblot for Cyclin F
[5] = biological target: T2, HA-tagged wild-type CDC6 (HEK-293T) (human); test: as above
[6] = biological target: T4, Cyclin F (endogenous, U2OS cells) (human (endogenous in U2OS)) (UniProt P41002); test: co-IP; U2OS whole-cell extracts, asynchronous or released from a double-thymidine block; anti-Cyclin F antibody coupled to protein A beads; 50 mM HEPES pH 7.5, 150 mM NaCl, 1 mM EDTA, 2.5 mM EGTA, 10% glycerol, 0.1% Tween; 2 h at 4 °C; immunoblot
T4 sequence: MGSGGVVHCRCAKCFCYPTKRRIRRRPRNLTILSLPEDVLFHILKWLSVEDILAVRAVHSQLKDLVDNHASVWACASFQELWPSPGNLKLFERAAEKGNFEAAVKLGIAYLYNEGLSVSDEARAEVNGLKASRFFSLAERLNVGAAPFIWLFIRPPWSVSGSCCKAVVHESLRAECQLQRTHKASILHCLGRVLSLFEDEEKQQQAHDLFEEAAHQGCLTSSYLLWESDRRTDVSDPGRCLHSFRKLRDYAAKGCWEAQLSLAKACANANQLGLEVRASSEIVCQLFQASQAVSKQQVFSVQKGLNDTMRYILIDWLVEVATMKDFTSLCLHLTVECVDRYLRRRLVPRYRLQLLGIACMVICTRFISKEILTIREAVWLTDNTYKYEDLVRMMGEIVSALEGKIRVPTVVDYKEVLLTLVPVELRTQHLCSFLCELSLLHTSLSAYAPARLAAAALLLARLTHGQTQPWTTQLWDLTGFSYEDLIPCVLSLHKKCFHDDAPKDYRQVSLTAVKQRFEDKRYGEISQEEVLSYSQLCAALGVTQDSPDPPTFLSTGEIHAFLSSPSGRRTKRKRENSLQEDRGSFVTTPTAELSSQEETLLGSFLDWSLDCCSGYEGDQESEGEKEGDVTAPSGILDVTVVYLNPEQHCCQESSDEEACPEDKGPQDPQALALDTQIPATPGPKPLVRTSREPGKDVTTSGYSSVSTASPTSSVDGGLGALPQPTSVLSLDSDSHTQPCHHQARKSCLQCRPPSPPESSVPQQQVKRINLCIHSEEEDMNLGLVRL

[7] = biological target: T5, FLAG-tagged wild-type Cyclin F (UniProt P41002); test: co-IP; HEK-293T cells transfected with FLAG-tagged Cyclin F WT or MR/AA; whole-cell extracts precipitated with anti-FLAG resin; immunoblot for endogenous CDC6
T5 sequence: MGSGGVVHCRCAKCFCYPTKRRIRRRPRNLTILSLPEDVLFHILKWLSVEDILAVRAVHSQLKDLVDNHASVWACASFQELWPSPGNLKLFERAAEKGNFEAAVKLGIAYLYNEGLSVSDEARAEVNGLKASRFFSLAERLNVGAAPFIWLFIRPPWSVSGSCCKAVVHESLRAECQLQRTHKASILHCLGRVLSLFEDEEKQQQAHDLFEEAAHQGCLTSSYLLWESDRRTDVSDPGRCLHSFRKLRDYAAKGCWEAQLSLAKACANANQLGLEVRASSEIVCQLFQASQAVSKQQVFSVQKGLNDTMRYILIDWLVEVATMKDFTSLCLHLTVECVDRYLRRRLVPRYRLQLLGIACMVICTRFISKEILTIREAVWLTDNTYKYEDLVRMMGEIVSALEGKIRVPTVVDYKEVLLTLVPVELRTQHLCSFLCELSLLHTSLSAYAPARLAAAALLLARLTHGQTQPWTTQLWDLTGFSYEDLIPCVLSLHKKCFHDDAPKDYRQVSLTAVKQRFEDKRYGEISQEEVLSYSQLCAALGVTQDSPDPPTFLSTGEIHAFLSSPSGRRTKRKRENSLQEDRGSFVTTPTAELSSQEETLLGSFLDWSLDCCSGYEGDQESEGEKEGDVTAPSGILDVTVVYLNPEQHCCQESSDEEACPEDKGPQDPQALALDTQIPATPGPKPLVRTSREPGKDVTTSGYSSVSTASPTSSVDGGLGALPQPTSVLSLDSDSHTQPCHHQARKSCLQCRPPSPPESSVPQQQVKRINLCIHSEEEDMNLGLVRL

binding [3]: binds
B1: in vitro translated 35S-labelled WT Cyclin F (protein, UniProt P41002 1-786)
chain: MGSGGVVHCRCAKCFCYPTKRRIRRRPRNLTILSLPEDVLFHILKWLSVEDILAVRAVHSQLKDLVDNHASVWACASFQELWPSPGNLKLFERAAEKGNFEAAVKLGIAYLYNEGLSVSDEARAEVNGLKASRFFSLAERLNVGAAPFIWLFIRPPWSVSGSCCKAVVHESLRAECQLQRTHKASILHCLGRVLSLFEDEEKQQQAHDLFEEAAHQGCLTSSYLLWESDRRTDVSDPGRCLHSFRKLRDYAAKGCWEAQLSLAKACANANQLGLEVRASSEIVCQLFQASQAVSKQQVFSVQKGLNDTMRYILIDWLVEVATMKDFTSLCLHLTVECVDRYLRRRLVPRYRLQLLGIACMVICTRFISKEILTIREAVWLTDNTYKYEDLVRMMGEIVSALEGKIRVPTVVDYKEVLLTLVPVELRTQHLCSFLCELSLLHTSLSAYAPARLAAAALLLARLTHGQTQPWTTQLWDLTGFSYEDLIPCVLSLHKKCFHDDAPKDYRQVSLTAVKQRFEDKRYGEISQEEVLSYSQLCAALGVTQDSPDPPTFLSTGEIHAFLSSPSGRRTKRKRENSLQEDRGSFVTTPTAELSSQEETLLGSFLDWSLDCCSGYEGDQESEGEKEGDVTAPSGILDVTVVYLNPEQHCCQESSDEEACPEDKGPQDPQALALDTQIPATPGPKPLVRTSREPGKDVTTSGYSSVSTASPTSSVDGGLGALPQPTSVLSLDSDSHTQPCHHQARKSCLQCRPPSPPESSVPQQQVKRINLCIHSEEEDMNLGLVRL
modifications: 35S-methionine-labelled

binding [4]: no binding
binding [5]: binds
B2: Cyclin F (HEK-293T cells) (protein, UniProt P41002 1-786)
chain: MGSGGVVHCRCAKCFCYPTKRRIRRRPRNLTILSLPEDVLFHILKWLSVEDILAVRAVHSQLKDLVDNHASVWACASFQELWPSPGNLKLFERAAEKGNFEAAVKLGIAYLYNEGLSVSDEARAEVNGLKASRFFSLAERLNVGAAPFIWLFIRPPWSVSGSCCKAVVHESLRAECQLQRTHKASILHCLGRVLSLFEDEEKQQQAHDLFEEAAHQGCLTSSYLLWESDRRTDVSDPGRCLHSFRKLRDYAAKGCWEAQLSLAKACANANQLGLEVRASSEIVCQLFQASQAVSKQQVFSVQKGLNDTMRYILIDWLVEVATMKDFTSLCLHLTVECVDRYLRRRLVPRYRLQLLGIACMVICTRFISKEILTIREAVWLTDNTYKYEDLVRMMGEIVSALEGKIRVPTVVDYKEVLLTLVPVELRTQHLCSFLCELSLLHTSLSAYAPARLAAAALLLARLTHGQTQPWTTQLWDLTGFSYEDLIPCVLSLHKKCFHDDAPKDYRQVSLTAVKQRFEDKRYGEISQEEVLSYSQLCAALGVTQDSPDPPTFLSTGEIHAFLSSPSGRRTKRKRENSLQEDRGSFVTTPTAELSSQEETLLGSFLDWSLDCCSGYEGDQESEGEKEGDVTAPSGILDVTVVYLNPEQHCCQESSDEEACPEDKGPQDPQALALDTQIPATPGPKPLVRTSREPGKDVTTSGYSSVSTASPTSSVDGGLGALPQPTSVLSLDSDSHTQPCHHQARKSCLQCRPPSPPESSVPQQQVKRINLCIHSEEEDMNLGLVRL

Further lines, the molecule ahead of its results:

Molecule: CDH1 (from UniProt Q9UM11 1-496)
binding [1]: binds
binding [2]: binds

B3: CDC6 (endogenous, U2OS cells) (protein, UniProt Q99741 1-560)
chain: MPQTRSQAQATISFPKRKLSRALNKAKNSSDAKLEPTNVQTVTCSPRVKALPLSPRKRLGDDNLCNTPHLPPCSPPKQGKKENGPPHSHTLKGRRLVFDNQLTIKSPSKRELAKVHQNKILSSVRKSQEITTNSEQRCPLKKESACVRLFKQEGTCYQQAKLVLNTAVPDRLPAREREMDVIRNFLREHICGKKAGSLYLSGAPGTGKTACLSRILQDLKKELKGFKTIMLNCMSLRTAQAVFPAIAQEICQEEVSRPAGKDMMRKLEKHMTAEKGPMIVLVLDEMDQLDSKGQDVLYTLFEWPWLSNSHLVLIGIANTLDLTDRILPRLQAREKCKPQLLNFPPYTRNQIVTILQDRLNQVSRDQVLDNAAVQFCARKVSAVSGDVRKALDVCRRAIEIVESDVKSQTILKPLSECKSPSEPLIPKRVGLIHISQVISEVDGNRMTLSQEGAQDSFPLQQKILVCSLMLLIRQLKIKEVTLGKLYEAYSKVCRKQQVAAVDQSECLSLSGLLEARGILGLKRNKETRLTKVFFKIEEKEIEHALKDKALIGNILATGLP
binding [6]: binds

B4: CDC6 (endogenous, HEK-293T cells) (protein, UniProt Q99741 1-560)
chain: MPQTRSQAQATISFPKRKLSRALNKAKNSSDAKLEPTNVQTVTCSPRVKALPLSPRKRLGDDNLCNTPHLPPCSPPKQGKKENGPPHSHTLKGRRLVFDNQLTIKSPSKRELAKVHQNKILSSVRKSQEITTNSEQRCPLKKESACVRLFKQEGTCYQQAKLVLNTAVPDRLPAREREMDVIRNFLREHICGKKAGSLYLSGAPGTGKTACLSRILQDLKKELKGFKTIMLNCMSLRTAQAVFPAIAQEICQEEVSRPAGKDMMRKLEKHMTAEKGPMIVLVLDEMDQLDSKGQDVLYTLFEWPWLSNSHLVLIGIANTLDLTDRILPRLQAREKCKPQLLNFPPYTRNQIVTILQDRLNQVSRDQVLDNAAVQFCARKVSAVSGDVRKALDVCRRAIEIVESDVKSQTILKPLSECKSPSEPLIPKRVGLIHISQVISEVDGNRMTLSQEGAQDSFPLQQKILVCSLMLLIRQLKIKEVTLGKLYEAYSKVCRKQQVAAVDQSECLSLSGLLEARGILGLKRNKETRLTKVFFKIEEKEIEHALKDKALIGNILATGLP
binding [7]: binds
